# Results published in PubChem BioAssay AID445 (National Center for Advancing Translational Sciences (NCATS), 2006).
# The whole screen tested about 110,000 compounds, of which about 40 (0.04%) were called active. The shares of active, inactive and inconclusive entries below differ from those in the screen. Calls come from the whole dose curve; as a rule, active = well fitted curve in the direction sought with a large enough effect in the signal ratio (not every such curve was filed as active); inconclusive = small, poorly fitted or top-dose-only effect, or a change in a side signal; inactive = flat fitted curve, though single readings scatter; the % refers to the signal ratio. A potency beside an inconclusive call is a rough fit, not a confirmed value.
# Assay: IkB Signaling;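 for IkBa stabilization activation: 0% = basal untreated cells and 100% = reference inhibitor full response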
# Settings: ABC-DLBCL IkBa-CBG/CBR dual luciferase ratio (green luciferase fused to IkBa over red control in OCI-Ly3 lymphoma cells), 4 h; IkBa stabilization activation: at 57.1 µM (top of the series), scaled: untreated 0%, proteasome inhibitor 100% unless noted
# Summary of the method: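 In this assay, an IκBα–CBG68 fusion accumulates when IKK-driven degradation is blocked; native CBR normalizes for cell number. OCI-Ly3 cells were treated 4 h with compound and doxycycline, then green and red light read after Chroma-Glo addition.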
# Potency is the fitted concentration of half-maximal effect.
Structure (SMILES),IkBa stabilization activation,Potency
COc1cc(CNCCCSc2nnnn2C)cc(Br)c1OC,inconclusive: 0.482% [signal inhibitor],–
COc1cc(S(=O)(=O)n2c(C)nc3ccccc32)ccc1F,inactive: 3.98%,–
CCC(c1nnc(SCc2nc3ccccc3s2)n1Cc1ccccc1)N(C)C (stereo not given),inconclusive: 4.48% [signal inhibitor],–
O=C(Nc1cccc(F)c1)C1CCN(c2nc3ccccc3nc2C(F)(F)F)CC1,–,inconclusive: 39.8 µM [signal inhibitor]
CCc1ccc(-c2nc(CN3CCCC(C(=O)NCc4ccccc4Cl)C3)c(C)o2)cc1 (stereo not given),inconclusive: 7.92% [signal inhibitor],–
COc1ccccc1CNc1ccc(N2CCCCC2)cc1,inconclusive: 6.86% [signal inhibitor],–
COc1ccccc1NC(=O)CCNC(=O)Cn1ccc2ccccc2c1=O,inactive: -0.335%,–
Brc1cccc(-c2nnc(SCc3nc4ccccc4[nH]3)o2)c1,inconclusive: 3.92% [signal inhibitor],–
Cc1nn2c(=O)cc(COC(=O)c3ccccc3NC(=O)C3CCCCC3)nc2s1,inconclusive: 4.33% [signal inhibitor],–
CCOc1ccc(N(CC)S(=O)(=O)N2CCCC(C(=O)NCc3ccccc3OCC)C2)cc1 (stereo not given),inconclusive: 1.31% [signal inhibitor],–
COc1cc(-c2cc3n(C)c(C)c(CCC(=O)NC4CCC(C)CC4)c(=O)n3n2)cc(OC)c1OC (stereo not given),inconclusive: 4.09% [signal inhibitor],–
O=C(NC1CCCC1)c1ccc2c(c1)N(Cc1c(F)cccc1Cl)C(=O)c1ccccc1S2,inconclusive: 0.184% [signal inhibitor],–
Cc1ccc(-c2cc(C(=O)Nc3cc(C)ccc3C)[nH]n2)c(O)c1,–,"inconclusive: 25.1 µM [signal inhibitor, partial curve, poor fit]"
CCc1ccc(C2=CC(c3cccc(OC)c3OC)n3c(nc4ccccc43)N2)cc1 (stereo not given),–,"inconclusive: 20 µM [signal inhibitor, partial curve]"
COc1ccc(CCNC(=O)Cn2c(=O)cc(C(F)(F)F)c3c(C)nn(C)c32)c(OC)c1,inactive: 0.371%,–
N#Cc1nc(-c2cccs2)oc1N1CCN(Cc2ccccc2)CC1,inconclusive: 1.78% [signal inhibitor],–
CCCCCOC(=O)C1=C(C)N(C)C(=O)NC1c1cc(Br)c(O)c(OC)c1 (stereo not given),inconclusive: 3.02% [signal inhibitor],–
Cc1ccc(N2CCN(S(=O)(=O)c3nnc(NC(=O)c4cccc(F)c4)s3)CC2)cc1,inconclusive: 1.96% [signal inhibitor],–
CCCN1CCN(CCCNC(=O)c2cc3c(=O)[nH]c4ccccc4c3s2)CC1,inconclusive: 3.64% [signal inhibitor],–
Cc1ccc(-n2ncc3c(NCCc4ccccc4)ncnc32)cc1Cl,inconclusive: -1.05% [signal inhibitor],–
COc1ccc(CCNC(=O)c2cc(-c3ccc(C)cc3)nc3n[nH]c(-c4ccc(F)cc4)c23)cc1OC,inactive: -0.632%,–
CN(Cc1ccccc1)S(=O)(=O)c1ccc2[nH]cc(C(=O)NCC3CCCO3)c(=O)c2c1 (stereo not given),inconclusive: 1.93% [signal inhibitor],–
COCCCNc1oc(-c2ccc(COc3ccccc3C)o2)nc1C#N,inconclusive: 1.46% [signal inhibitor],–
Cc1ccc(-c2noc(CCC(=O)NC3CCN(Cc4ccccc4)CC3)n2)cc1,inactive: -0.114%,–

Structure (SMILES),IkBa stabilization activation,Potency
COc1ccc(OC)c(NC(=O)c2cc3n(n2)C(C(F)(F)F)CC(c2ccc4c(c2)OCO4)N3)c1 (stereo not given),inconclusive: 0.259% [signal inhibitor],–
COc1cccc(OCCn2c(-c3ccc(Cl)cc3)nc3ccccc3c2=O)c1,inconclusive: 6.63% [signal inhibitor],–
Cc1c(Cl)cccc1-c1ccc(C(=O)Nc2ccc3oc(-c4cccnc4)nc3c2)o1,inactive: 8.05%,–
CCC1=Nc2cc(C(=O)NC3CCCC3)ccc2Sc2ccc(Cl)cc21,–,inconclusive: 7.94 µM
COc1ccccc1N1CCN(C(=O)CCCn2c(=O)[nH]c3ccsc3c2=O)CC1,inconclusive: 4.89% [signal inhibitor],–
Cc1ccc2nc3sc(C(=O)Nc4ccc(F)cc4)cc3cc2c1,inconclusive: 2.35% [signal inhibitor],–
CCOc1ccc(C(=O)OCn2nnc3ccccc3c2=O)cc1OC,inactive: -2.61%,–
O=C(COc1ccccc1)N1CCc2ccccc2C1,–,"inconclusive: 20 µM [signal inhibitor, partial curve]"
Cc1cc(C)cc(N(CC(=O)NCc2cccnc2)S(C)(=O)=O)c1,inactive: 0.18%,–
CN(C(=O)CSc1nc2ccc(NC(=O)c3ccco3)cc2s1)c1ccccc1,inconclusive: -0.461% [signal inhibitor],–
CCn1c(=O)cc(OCC(=O)NCCCN2CCN(c3cccc(Cl)c3)CC2)c2ccccc21,inconclusive: -3.37% [signal inhibitor],–
CCc1ccccc1NC(=O)c1nnn(CC(=O)Nc2c(C)cc(C)cc2C)c1N,inactive: -2.16%,–
Cc1ccc(CNS(=O)(=O)c2ccc(F)c(C(=O)Nc3ccc(C)c(F)c3)c2)cc1,inconclusive: -0.57% [signal inhibitor],–
Cc1ccc(N(C)C(=O)Cn2nc(Cc3ccncc3)c3ccccc3c2=O)cc1C,inactive: 0.713%,–
COCCN(CCOC)c1ncnc2c1cnn2-c1ccc(Cl)cc1,inactive: -3.81%,–
Cc1cc(NC(=O)c2cc(-c3ccncc3)nc3c(C)cccc23)no1,inconclusive: 0.333% [signal inhibitor],–
O=C(Nc1ccc(F)cc1)c1ccc(-n2cnc3cccnc32)cc1,inconclusive: 1.33% [signal inhibitor],–
COc1cccc(CNC(=O)C2CCC(CNS(=O)(=O)c3cccs3)CC2)c1 (stereo not given),inactive: -3.86%,–
N#Cc1c(SCc2ccccc2)nc(N2CCOCC2)c2c1CCCC2,inactive: 1.36%,–
CCCC(=O)N(c1ccc2oc3c(c2c1)CCCC3)S(=O)(=O)c1ccc(CC)cc1,inconclusive: 11.7% [signal inhibitor],–
O=C(O)c1c[nH]c2cc(OCc3ccccc3)ccc2c1=O,–,"inconclusive: 1 µM [signal inhibitor, partial curve]"
CC1CCN(S(=O)(=O)c2ccc3c(c2)N(CC(=O)NCc2ccccc2Cl)C(=O)CO3)CC1,inactive: 2.09%,–
O[C@@H](c1cc(-c2ccc(Cl)cc2)nc2ccccc12)[C@@H]1CCCCN1,"inactive: 2.46% [at 11.4 µM, scaled: untreated 0%, proteasome inhibitor 100%]",–
COc1ccc(OC)c(-n2c(=O)[nH]c3cc(C(=O)NCCc4ccc(OC)c(OC)c4)ccc3c2=O)c1,inconclusive: -1.37% [signal inhibitor],–

Structure (SMILES),IkBa stabilization activation,Potency
COc1ccccc1-c1cc(C(F)(F)F)nc(N2CCOCC2)n1,inactive: 1.84%,–
COc1ccc(NCc2nc3ccccc3n2CCOc2ccccc2C)cc1,–,"inconclusive: 3.98 µM [signal inhibitor, full curve]"
C1=C(CCNc2nnnn2-c2ccccc2)CCCC1,inconclusive: 3.37% [signal inhibitor],–
COC(=O)c1ccc(C)cc1,inactive: 2.53%,–
CC(=O)Nc1cccc(Oc2cc(C#N)c(C#N)cc2N2CCCCCC2)c1,inconclusive: 0.423% [signal inhibitor],–
Cc1cc(C)c2c(n1)nn1c(C)c(CCC(=O)Nc3ccc(C)c(Cl)c3)c(C)nc21,inconclusive: 0.962% [signal inhibitor],–
Cc1cn2c(=O)cc(COC(=O)c3cccc(NC(=O)C(C)Oc4ccccc4)c3)nc2s1 (stereo not given),inconclusive: 2.18% [signal inhibitor],–
CC1=C(C(=O)Nc2ccc(Cl)cc2)C(c2cccs2)n2nc(SCc3cccc(Cl)c3)nc2N1 (stereo not given),inconclusive: 6.47% [signal inhibitor],–
CCn1c(Oc2ccc(F)cc2F)nc2c1c(=O)n(C)c(=O)n2C,inconclusive: 2.11% [signal inhibitor],–
Cc1cc(Nc2ccc(F)cc2)n2nc(C)nc2n1,–,"inconclusive: 12.6 µM [signal inhibitor, partial curve]"
COc1ccc(Nc2cc(C(=O)NCCCN(C)Cc3ccccc3)c3ccccc3n2)cc1OC,inconclusive: 0.72% [signal inhibitor],–
CCC(CC)C(=O)Nc1cccc(-c2nc3cccnc3s2)c1,inactive: -0.837%,–
Cc1nc2nc(COc3ccccc3)[nH]n2c(=O)c1Cl,–,"inconclusive: 10 µM [signal inhibitor, partial curve]"
COc1cccc(COC(=O)c2nn(-c3ccccc3)nc2N)c1,inconclusive: 2.95% [signal inhibitor],–
Cc1csc2nc(COC(=O)c3ccccc3NC(=O)c3ccccc3Cl)cc(=O)n12,inactive: 2.09%,–
COc1ccc(NC(=O)NCc2cccn2C)c(OC)c1,inconclusive: 7.79% [signal inhibitor],–
COc1ccccc1CCNC(=O)c1cc2c(=O)n3cccc(C)c3nc2n1C,inactive: 1.58%,–
CCc1ccc(NC(=O)N2CC=C(c3c[nH]c4ccccc34)CC2)cc1,–,"inconclusive: 15.8 µM [signal inhibitor, partial curve]"
CCN(CC)c1ccc(NC(=O)CCS(=O)(=O)c2cccc3nsnc23)c(C)c1,–,inconclusive: 31.6 µM [signal inhibitor]
COc1ccc(C(=O)NCC(c2cccnc2)N2CCc3ccccc3C2)cc1 (stereo not given),inconclusive: 3.62% [signal inhibitor],–
CCN(CC)c1ccc(C2CC(=O)Nc3cc(OC)c(OC)cc32)cc1 (stereo not given),inconclusive: 2.43% [signal inhibitor],–
CC(C)[C@@H]1NC(=O)[C@H](CCCCN)NC(=O)[C@H](Cc2c[nH]c3ccccc23)NC(=O)[C@H](Cc2ccc(O)cc2)NC(=O)[C@H](C)N(C)C(=O)[C@H](Cc2ccccc2)NC1=O,inactive: -2.57%,–
